# Measured values as given in patent publication US20150209426A1, “TREATMENT OF CANCER” (Boehringer Ingelheim International GmbH, priority 2014, published 2015).
# B1: IGF Ab 60833: fully human monoclonal IgG1 antibody binding IGF-1 and IGF-2; heavy chain SEQ ID NO: 39, light chain SEQ ID NO: 40 (antibody, listed as Homo sapiens)
# heavy: QVELVESGGGLVQPGGSLRLSCAASGFTFTSYWMSWVRQAPGKGLELVSSITSYGSFTYYADSVKGRFTISRDNSKNTLYLQMNSLRAEDTAVYYCARNMYTHFDSWGQGTLVTVSS[gap - human IgG1 constant region]
# light: DIVLTQPPSVSGAPGQRVTISCSGSSSNIGSNSVSWYQQLPGTAPKLLIYDNSKRPSGVPDRFSGSKSGTSASLAITGLQSEDEADYYCQSRDTYGYYWVFGGGTKLTVLGQPKAAPSVTLFPPSSEELQANKATLVCLISDFYPGAVTVAWKGDSSPVKAGVETTTPSKQSNNKYAASSYLSLTPEQWKSHRSYSCQVTHEGSTVEKTVAPTECS
# modifications: /mol_type=“protein” /organism=“Homo sapiens”
# How the values were obtained:
# [1] = tested on: pAKT in Ewing's sarcoma models; details: models of Ewing's sarcoma, with rapamycin; cited from earlier work
# [2] = tested on: cleaved PARP in MCF7aro cells; experiment: Cleaved PARP (apoptosis) in MCF7aro cell lysates by Western blot and MSD Apoptosis Panel; format: cell-based, human; details: 72 h, 1 μM of each agent, versus vehicle-treated control
# Description: 1.5×10^6 MCF7aro cells were plated in 10 cm dishes in starvation medium (MEM alpha without phenol red, supplemented with 10% charcoal stripped FBS, 2 mM GlutaMAX and 1 mM sodium pyruvate). After overnight incubation, medium was changed to assay medium (MEM alpha without phenol red, supplemented with 10% charcoal stripped FBS, 2 mM GlutaMAX, 1 mM sodium pyruvate and 1 nM androstenedione) and the cells were treated with vehicle (DMSO), or 1 μM of IGF Ab 60833, or 1 μM exemestane, or 1 μM everolimus, or a combination of exemestane and everolimus, or a combination of all three inhibitors. At 72 h post treatment, the cells were lysed on ice with MSD Tris Lysis Buffer containing 20 mM Tris pH 7.5, 150 mM NaCl, 1 mM EDTA, 1 mM EGTA, 1% Triton X-100, completed with protease and phosphatase inhibitor cocktails. Prior to use, freshly prepared 2 mM PMSF was added to the buffer.
# (§1) Total protein was isolated and protein concentration was quantified by Bradford protein assay according to the manufacturer's instructions. […]
# Cells lysates were prepared according to the Meso Scale Discovery cell lysis protocol. 20 μg of clarified lysate was analyzed in duplicates with MSD Apoptosis Panel Whole Cell Lysate Kit, measuring cleaved PARP signals, according to the manufacturer's instructions. Plates were read on the SECTOR Imager 6000 plate reader.
# [3] = tested on: AKT and S6 phosphorylation in MCF7aro cells; experiment: Western blot assessment of AKT and S6 phosphorylation status in MCF7aro cell lysates; format: cell-based, human; details: 24 hours, 100 nM IGF Ab 60833, 0.32 nM everolimus, versus vehicle (DMSO) control
# Description: 1.8×10^6 MCF7aro cells were plated in 10 cm dishes in starvation medium (MEM alpha without phenol red, supplemented with 10% charcoal stripped FBS, 2 mM GlutaMAX and […]). After overnight incubation, medium was changed to assay medium (MEM alpha without phenol red, supplemented with 10% charcoal stripped FBS, 2 mM GlutaMAX, 1 mM sodium pyruvate and 1 nM androstenedione) and the cells were treated with 100 nM of IGF Ab 60833 or 0.32 nM of everolimus or a combination of antibody and mTORC1 inhibitor. As a control, cells were treated with vehicle (DMSO) only. At 24 h post treatment, the cells were lysed on ice with MSD Tris Lysis Buffer containing 20 mM Tris pH 7.5, 150 mM NaCl, 1 mM EDTA, 1 mM EGTA, 1% Triton X-100, completed with protease and phosphatase inhibitor cocktails. Prior to use, freshly prepared 2 mM PMSF was added to the buffer.
# as §1
# The effect of IGF Ab 60833 and everolimus, as single agents and in combination, on the phosphorylation of AKT at serine 473 (pAKT S473) and threonine 308 (pAKT T308), and of S6 (pS6) at serine 235/236 was monitored by Western blot analysis of MCF7aro cell lysates prepared 24 hours post treatment.
molecule,measurement,setting,value
B1,effect on rapamycin-induced increase in pAKT,[1],inhibit the rapamycin induced increase in pAKT; also recorded: inhibit the rapamycin-induced increase in pAKT
same,levels of cleaved PARP (marker for apoptosis),[2],comparable to or only marginally higher than the level in the vehicle-treated control
same,pAKT S473 and T308 levels by Western blot,[3],did not result in inhibition
same,pS6 (S235/236) signal by Western blot,[3],did not result in inhibition

# “Also recorded” adds a separate entry of the source.
